The supplement of paper PMC12217912
Some of the results follow. The full chains were built here from the parent and the listed change. Values near 0.05 are background.

B1: TEV protease; numbered along this chain (parent)
chain: MGESLFKGPRDYNPISSSICHLTNESDGHTTSLYGIGFGPFIITNKHLFRRNNGTLVVQSLHGVFKVKDTTTLQQHLVDGRDMIIIRMPKDFPPFPQKLKFREPQREERICLVTTNFQTKSMSSMVSDTSCTFPSGDGIFWKHWIQTKDGQCGSPLVSTRDGFIVGIHSASNFTNTNNYFTSVPKNFMELLTNQEAQQWVSGWRLNADSVLWGGHKVFMVKPEEPFQPVKEATQL

Variants of: B1
Experiment: raw area under fraction-flipped curve 0-4 h after induction (AUC4h, not background-subtracted), DNA-recorder readout of cleavage of the substrate (dimensionless); higher = more cleavage of the substrate by the protease variant
Settings: temperature: 34 °C; time window: 0-4 h after rhamnose induction
Protocol: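 In vivo DNA recorder in E. coli TOP10(DE3) ΔrhaA at 34 °C. Each TEVp single-site mutant (parent TEVp 0) is paired with a single-site variant of the 7-mer TEVs (canonical ENLYFQ|S). The substrate sits between flexible linkers in a Bxb1-sfGFP-TEVs-SsrA fusion, so cleavage stabilises Bxb1 and speeds flipping of a recombination array, read by NGS. The value is the raw area under the fraction-flipped curve over 0-4 h after rhamnose induction (AUC4h), with ≥20 reads per time point. It is not background-subtracted; inactive controls average about 0.047.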
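Also: Bxb1 expression induced with 0.2% (w/v) L-rhamnose at OD600 near 0.5, cultures sampled hourly, flipped fraction per protease–substrate barcode pair counted by paired-end Illumina sequencing.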

Variant | area with substrate ENLAFQS | area with substrate ENLDFQS | area with substrate ENLEFQS | area with substrate ENLFFQS | area with substrate ENLGFQS | area with substrate ENLIFQS | area with substrate ENLKFQS | area with substrate ENLMFQS | area with substrate ENLNFQS | area with substrate ENLSFQS | area with substrate ENLWFQS | area with substrate ENLCFQS | area with substrate ENLHFQS | area with substrate ENLLFQS | area with substrate ENLPFQS | area with substrate ENLQFQS | area with substrate ENLRFQS | area with substrate ENLTFQS | area with substrate ENLVFQS
MGESLFKGPRDYNPISSSICHLTNESDGHTTSLYGIGFGPFIITNKHLFRRNNGTYVVQSLHGVFKVKDTTTLQQHLVDGRDMIIIRMPKDFPPFPQKLKFREPQREERICLVTTNFQTKSMSSMVSDTSCTFPSGDGIFWKHWIQTKDGQCGSPLVSTRDGFIVGIHSASNFTNTNNYFTSVPKNFMELLTNQEAQQWVSGWRLNADSVLWGGHKVFMVKPEEPFQPVKEATQL [L56Y] | 0.0642 | 0.0608 | 0.0486 | 0.0558 | 0.0731 | 0.0585 | 0.0558 | 0.0666 | 0.0663 | 0.0578 | 0.0062 | – | – | – | – | – | – | – | –
MGESLFKGPRDYNPISSSICHLTNESDGHTTSLYGIGFGPFIITNKHLFRRNNGTLVVQSLHGVFKVKDTTTLQQHLVDGRDMIIIRMPKDFPPFPQKLKFREPQREERICLVTTNFQTKSMSSMVSDTSCTFHSGDGIFWKHWIQTKDGQCGSPLVSTRDGFIVGIHSASNFTNTNNYFTSVPKNFMELLTNQEAQQWVSGWRLNADSVLWGGHKVFMVKPEEPFQPVKEATQL [P134H] | 0.0643 | 0.0635 | 0.0568 | 0.071 | 0.0651 | 0.0683 | 0.0563 | – | 0.0599 | 0.0554 | 0.0529 | 0.0682 | 0.0589 | 0.0651 | 0.0571 | 0.056 | 0.0664 | 0.0542 | –
MGESLFKGPRDYNPISSSICHLTNESDGHTTSLYGIGFGPFIITNKHLFRRNNGTLVVQSLHGVFKVKDTTTLQQHLVDGRDMIIIRMPKDFPPFPQKLKFREPQREERICLVTTNFQTKSMSSMVSDTSCTFPSGDGIFWKHWIQTKDGQCGSPLVSTRDGFIVGIHSASNFTNTNNYFTSVPKNFMELLTNQEAQQWVSGWKLNADSVLWGGHKVFMVKPEEPFQPVKEATQL [R204K] | 0.0583 | 0.0546 | – | 0.0962 | – | 0.0849 | 0.0831 | 0.07 | 0.0675 | 0.0743 | 0.0797 | 0.0755 | 0.0591 | 0.058 | – | – | – | 0.065 | 0.102
MGESLFKGPRDYNPISSSICHLTNESDGHTTSLYGIGFGPFIITNKHWFRRNNGTLVVQSLHGVFKVKDTTTLQQHLVDGRDMIIIRMPKDFPPFPQKLKFREPQREERICLVTTNFQTKSMSSMVSDTSCTFPSGDGIFWKHWIQTKDGQCGSPLVSTRDGFIVGIHSASNFTNTNNYFTSVPKNFMELLTNQEAQQWVSGWRLNADSVLWGGHKVFMVKPEEPFQPVKEATQL [L48W] | 0.0579 | 0.0674 | 0.0734 | 0.0646 | 0.0733 | 0.0818 | 0.0444 | 0.0582 | 0.0592 | 0.0558 | 0.0567 | 0.066 | 0.0599 | – | 0.0658 | 0.0549 | 0.06 | 0.0669 | 0.0647
MGESLFKGPRDYNPISSSICHLTNESDGHTTSLYGIGFGPFIITNKHLFRRNNGTLVVQSLHGVFKVKDTTTLQQHLVDGRDMIIIRMPKDFPPFPQKLKFREPQREERICLVTTNFQTKSMSSMVSDTSCTFPSGDGIFWKHWIQTKDGQKGSPLVSTRDGFIVGIHSASNFTNTNNYFTSVPKNFMELLTNQEAQQWVSGWRLNADSVLWGGHKVFMVKPEEPFQPVKEATQL [C152K] | 0.0512 | 0.0726 | 0.0655 | – | 0.0661 | – | 0.068 | – | 0.0617 | 0.0435 | – | – | 0.0634 | 0.0762 | – | – | – | – | –
MGESLFKGPRDYNPISSSICHLTRESDGHTTSLYGIGFGPFIITNKHLFRRNNGTLVVQSLHGVFKVKDTTTLQQHLVDGRDMIIIRMPKDFPPFPQKLKFREPQREERICLVTTNFQTKSMSSMVSDTSCTFPSGDGIFWKHWIQTKDGQCGSPLVSTRDGFIVGIHSASNFTNTNNYFTSVPKNFMELLTNQEAQQWVSGWRLNADSVLWGGHKVFMVKPEEPFQPVKEATQL [N24R] | 0.0487 | 0.0664 | 0.0489 | 0.0543 | 0.0526 | 0.0662 | 0.0763 | 0.0709 | – | 0.071 | – | 0.0692 | 0.0626 | 0.0607 | 0.0641 | 0.0495 | 0.0734 | 0.058 | 0.0674
MGESLFKGPRDYNPISSSICHLTNESDGHTTSLYGIGFGPFIITNKHLFRRNNGTLVVQSLHGVFKVKDTTTLQQHLVDGRDMIIIRMPKDFPPFPQKLKFREPQREERICLVTTNFQTKSMSSMVSDTSCTFPSGDGIFWKHWIQTKDGQCGSPLVSTRDGFIVGIHSASNFTNTNNYFTSVPKNFMELLTNQEAQQWVSGWRLNADSVLWGGHKVFMVKHEEPFQPVKEATQL [P222H] | 0.0511 | 0.0682 | – | 0.0841 | – | – | 0.0852 | 0.0489 | 0.066 | 0.0601 | 0.0653 | 0.0744 | 0.0477 | – | – | 0.0743 | – | – | –
MGESLFKGPRDYNPISSSICHLTNESDGHTTSLYGIGFGPFIITNKHLFRRNNGTLVVQSLHGVFKVKDTTTLQQHLVDGRDMIIIRMPKDFPPFPQKLKFREPQREERICLVTTNFQTKSMSSMVSDTSCTFPSGDGIFWKHWIQTKDGQCGSPLVSTRDGFIVGINSASNFTNTNNYFTSVPKNFMELLTNQEAQQWVSGWRLNADSVLWGGHKVFMVKPEEPFQPVKEATQL [H168N] | 0.0675 | 0.0608 | – | 0.0433 | – | – | – | – | 0.0707 | 0.055 | – | 0.0563 | 0.0742 | 0.0746 | – | – | – | – | –
MGESLFKGPRDYNPIASSICHLTNESDGHTTSLYGIGFGPFIITNKHLFRRNNGTLVVQSLHGVFKVKDTTTLQQHLVDGRDMIIIRMPKDFPPFPQKLKFREPQREERICLVTTNFQTKSMSSMVSDTSCTFPSGDGIFWKHWIQTKDGQCGSPLVSTRDGFIVGIHSASNFTNTNNYFTSVPKNFMELLTNQEAQQWVSGWRLNADSVLWGGHKVFMVKPEEPFQPVKEATQL [S16A] | 0.105 | 0.0601 | – | 0.095 | 0.0651 | 0.0798 | 0.0778 | 0.0945 | 0.0507 | 0.0609 | 0.0534 | 0.0533 | 0.0741 | – | – | 0.0795 | – | – | –
